Test results as given in the RNAGym collection of RNA variant scans (doi:10.7554/elife.90254).
The source gives no read counts; variants with many changes may rest on few reads.

B1: LINE1-full (parent)
chain: UACGUAGGUGGUUUUCCCCUGAUAGUGCUAAGGGGGCCUGGAAGUUUGGACUGGGCAGAGCUCAACACAGCGUGGCAAAGUGGCUGUGGCUAGACUGCCUCUCUGGAUUCCUCGUCACUCAGCAGGGCAUCUCUGAGAGAAAUGCC

Variants of: B1
Assay: self-cleavage, relative activity (ratio to wild type); higher = more cleavage; in vitro, sequencing; the parent is a self-cleaving ribozyme
U104A U109C G126A gave a self-cleavage of 1.45.
A50U A67C A140C gave a self-cleavage of 0.12.
Variant G32A A77G U134C has a self-cleavage of 1.95.
In the case of U15C A30G U96C A138G, the self-cleavage is reported as 0.89.
In the case of A107G U119A A129U, the self-cleavage is reported as 1.07.
Variant A6G U39C A140G has a self-cleavage of 0.
Work on U39A U52C U62C yielded a self-cleavage of 0.
Variant A65U A69G U87A U115C has a self-cleavage of 0.
With C3U U62C U81A A121U the self-cleavage was 0.06.
For U12G C61U A129U, the self-cleavage was 0.14.
A43U U47C A57U A117G showed a self-cleavage of 0.
In the case of U1C U52C A57U G93A U115A A138U, the self-cleavage is reported as 0.03.
C38U A69G U81A gave a self-cleavage of 0.11.
For G7U U91C A117G, the self-cleavage was 1.53.
Variant U9C U13C U20A U81C U108C has a self-cleavage of 0.
For A24G U62C C113A, the self-cleavage was 0.5.
Variant U45C U87C U100C U134C G135U has a self-cleavage of 0.
Variant U14C U20C G127A A138U has a self-cleavage of 0.73.
In the case of G54A U73A U108C U119A, the self-cleavage is reported as 0.94.
A57G A67U U109C A121G showed a self-cleavage of 0.
Work on A77G U132C A142U yielded a self-cleavage of 1.96.
With A2U G70A A107G A117U U132A the self-cleavage was 0.13.
U9A U26C U62C gave a self-cleavage of 0.29.
Variant U15A A22C U23C A77U has a self-cleavage of 1.29.
In the case of A43G A64U U108C A124G, the self-cleavage is reported as 0.58.
Variant C28A G35U U134A has a self-cleavage of 0.57.
U13C A50G U62C G126A A138U showed a self-cleavage of 0.
Work on G25C A42U U62A yielded a self-cleavage of 0.04.
A22U A59G A79G A124G G126A A138U showed a self-cleavage of 0.05.
U13C U104C A138G gave a self-cleavage of 2.57.
C37U A42U G72A A129G gave a self-cleavage of 2.3.
Work on U1C U73A U132C yielded a self-cleavage of 1.02.
With U1A C90U G135A the self-cleavage was 0.17.
U9C A43U U45A showed a self-cleavage of 1.22.
For G34U U104C A107C C123U, the self-cleavage was 2.2.
For C16U U29A U132C U134C, the self-cleavage was 0.34.
Variant U1A U12A U134C A140G has a self-cleavage of 0.74.
Work on U20C G75U A138G yielded a self-cleavage of 0.62.
Variant A43U G58U G60A has a self-cleavage of 0.03.
Variant A77U A79U A124G has a self-cleavage of 0.84.
In the case of U12C A59G C101U, the self-cleavage is reported as 0.07.
In the case of U9A U46A A64C, the self-cleavage is reported as 0.52.
Work on U14C U26C U81C yielded a self-cleavage of 0.38.
In the case of U12A G32A U132C A136U, the self-cleavage is reported as 1.14.
Variant U14C U119C U132A has a self-cleavage of 1.27.
With U20A A50G C76A the self-cleavage was 0.86.
In the case of A69G A94G A124G, the self-cleavage is reported as 0.92.
G10A U13C U62C U85C showed a self-cleavage of 0.23.
Variant C19U A59U A69C C90U U104C has a self-cleavage of 0.02.
U9A C110A A141G gave a self-cleavage of 1.97.
A24G A50G A140G showed a self-cleavage of 0.92.
With A43C U119A A138G the self-cleavage was 1.97.
Variant U13C A65G U130C has a self-cleavage of 0.18.
U87A U112G A121G showed a self-cleavage of 0.
For U39C A43G A65G, the self-cleavage was 0.
U20A U26C A43U U45C gave a self-cleavage of 0.
Variant A6G U12C U104C has a self-cleavage of 1.23.
Variant A30G U73A U109C has a self-cleavage of 1.5.
C84G U119A A141G gave a self-cleavage of 0.1.
For A65G U73A U100C, the self-cleavage was 0.1.
Work on U1C A65U A94G A142G yielded a self-cleavage of 0.
U12C U23G U87A C95U showed a self-cleavage of 0.05.
Variant U46C U104C U108C has a self-cleavage of 1.15.
For U14C A78U U132C, the self-cleavage was 2.66.
Variant G41A A65G G75U C120A C131U has a self-cleavage of 0.03.
With U39A U119C U132C the self-cleavage was 2.07.
With C3U U14C U45A A57G A129G the self-cleavage was 0.26.
Work on A42G A94G A142G yielded a self-cleavage of 0.35.
For U9G A59G A67U U119C, the self-cleavage was 0.
Variant A31U A65U A79G has a self-cleavage of 0.2.
Variant U46C A107G A142G has a self-cleavage of 2.55.
U14C U23C G60U showed a self-cleavage of 0.12.
With U119C A121G A136G the self-cleavage was 1.39.
Work on A59G G114A U119A yielded a self-cleavage of 0.1.
In the case of C19G A31G U87A U104A A138G, the self-cleavage is reported as 0.
U81C G105A U119A showed a self-cleavage of 1.47.
Variant U20G A77G C113A has a self-cleavage of 1.53.
Work on G72A U91C U112C A124U yielded a self-cleavage of 0.45.
With U12A U13C A50U A79G the self-cleavage was 2.3.
Work on A69G G125U U143A yielded a self-cleavage of 0.53.
U15C A64U C71U U87C A138U gave a self-cleavage of 0.2.
A6U G36A C68U A107G A129G gave a self-cleavage of 0.11.
U9G U14A A42U U104A gave a self-cleavage of 1.52.
Variant U15A A24G U73C U109C U130C has a self-cleavage of 0.
A67G G72A U112A A136G gave a self-cleavage of 0.5.
U13C A64G A141G gave a self-cleavage of 0.25.
With U26C U91C A124U the self-cleavage was 1.03.
In the case of A64U A65G U104G U143C, the self-cleavage is reported as 0.
Variant A43G U96A G127C has a self-cleavage of 0.07.
U1C U13C A92G U134A showed a self-cleavage of 0.
In the case of C37G U81C U100C U109C, the self-cleavage is reported as 0.54.
In the case of U96C U102C U134C, the self-cleavage is reported as 0.09.
With U13C U112C A141G the self-cleavage was 1.32.
In the case of G32C U45C A79G A129G, the self-cleavage is reported as 0.
In the case of U9G U14C A50G U73A U85C, the self-cleavage is reported as 0.
Variant U14C C18U G54U U102C has a self-cleavage of 1.84.
Work on G33U U39A C133A yielded a self-cleavage of 1.07.
Work on A30G U87C A140G yielded a self-cleavage of 0.44.
For U12C U15C U52C A67U U109A, the self-cleavage was 0.38.
Variant U119A A140G A142G has a self-cleavage of 0.34.
For U26A A30G U45G A59C, the self-cleavage was 0.84.
Variant G11A A65G U134C has a self-cleavage of 0.1.
For A69U G72A U102A U119C A142G, the self-cleavage was 0.06.
Variant U12C G35A U85C has a self-cleavage of 0.12.
With A67G U132C U134C the self-cleavage was 0.
In the case of A22G C61A A142G, the self-cleavage is reported as 0.03.
Work on U85G U109C U119C U134A yielded a self-cleavage of 1.
With U15A A50G U96A the self-cleavage was 0.09.
U23C U100C U130A showed a self-cleavage of 2.58.
In the case of G41A C63A A65C, the self-cleavage is reported as 0.01.
For C66A A67G U115C, the self-cleavage was 0.1.
U20A U62C A78G C146U gave a self-cleavage of 0.09.
Variant A77G A79G A121U A142G has a self-cleavage of 0.43.
Work on C37G U45G U112C U115C yielded a self-cleavage of 1.74.
Variant U9A U96C A107G has a self-cleavage of 0.18.
U81G A92G A107G showed a self-cleavage of 0.
Variant A59G C84U U115C has a self-cleavage of 0.05.
U13C A117G G126A showed a self-cleavage of 1.23.
A42C G49U U109C A138G A140G showed a self-cleavage of 0.62.
Work on C51A U115A G125A yielded a self-cleavage of 1.12.
Work on U13A U15A A64G yielded a self-cleavage of 0.07.
G4A U13C U29C C116U gave a self-cleavage of 0.72.
Work on A2U U12A A94G A129U yielded a self-cleavage of 0.22.
With U15C U26C C95A the self-cleavage was 0.15.
C37U A43G A77U showed a self-cleavage of 0.72.
For U13A U81C U100C A138G, the self-cleavage was 2.35.
Variant C61U A64G A107G has a self-cleavage of 0.13.
With C38U G137U U143C the self-cleavage was 1.02.
Variant A22U G72A A141G has a self-cleavage of 1.55.
In the case of A24G G25A U73A A124U, the self-cleavage is reported as 1.41.
With U14C U85C U143C the self-cleavage was 0.35.
Variant U39A G49U U102A has a self-cleavage of 0.56.
With A64G A69G G72A the self-cleavage was 0.12.
C19U U112A A140G gave a self-cleavage of 1.31.
U15A A79G U91C A94G C98U U115C showed a self-cleavage of 0.
Variant U15C U39C U73A has a self-cleavage of 1.02.
For A43C A140G A141G U143G, the self-cleavage was 1.2.
Work on C37A U87C U134C yielded a self-cleavage of 0.12.
In the case of U45A U104A A124G, the self-cleavage is reported as 0.55.
A42C A50G C56U U104A showed a self-cleavage of 0.1.
Work on G33A U85C A94G A142G yielded a self-cleavage of 0.
A94G U112G C113U A136U showed a self-cleavage of 0.23.
Work on U15G A43G U104C A138U U143C yielded a self-cleavage of 0.
G33A A64G C98U U109C showed a self-cleavage of 0.07.
U26A A69G A78U A136U gave a self-cleavage of 0.57.
With U96C A124G U132C the self-cleavage was 0.
A30G A50U U73C U81C U104A gave a self-cleavage of 1.53.
U15A A42G U108C showed a self-cleavage of 0.92.
Variant A65U U102A A138G has a self-cleavage of 0.12.
Variant U26G A67U A107U U119C C120A has a self-cleavage of 0.16.
With U12C U87C C146U the self-cleavage was 0.65.
With U39C U108C U130C the self-cleavage was 2.25.
G35U U87A A117C showed a self-cleavage of 0.04.
For U13C U85C A121G, the self-cleavage was 0.37.
With A22G A31C U45A U100C U102C U115A A141G the self-cleavage was 2.
For C19U A65G U104A U119C, the self-cleavage was 0.66.
In the case of G106A A107G U108C U134C, the self-cleavage is reported as 0.96.
For C66A A79G U102C U104C U130C A140G, the self-cleavage was 0.37.
U45C G70A U112A A117G A129U A138C showed a self-cleavage of 0.
In the case of U23A G82A U100A A136G, the self-cleavage is reported as 1.16.
In the case of U81C C84U A140U, the self-cleavage is reported as 0.14.
U14C A31U A65G showed a self-cleavage of 0.
A67C G93C A140G gave a self-cleavage of 0.
In the case of U12C U26A U102C, the self-cleavage is reported as 1.37.
Variant C18U C95U U96C has a self-cleavage of 0.09.
Work on U62C A77G U134G yielded a self-cleavage of 0.05.
In the case of A77G U119C A141G, the self-cleavage is reported as 1.1.
